Reference: PubChem BioAssay AID463173 (ICCB-Longwood Screening Facility, Harvard Medical School, 2010)
The campaign covered roughly 52,000 compounds. About 4,300 (8.3%) were called active. Cut-off read from the data, not from the text of the source: active = survival mostly below about 52% (no sharp cut-off); inactive = mostly above about 56%. The list shows a part of the results.

What follows are compounds tested on DeltatarO mutant (assay: S. aureus survival, RN4220 and DeltatarO strains – OD600, teichoic acid synthesis inhibitors, primary screen (AID 463173)). Settings: S. aureus RN4220 wild type/DeltatarO growth, OD600, 18 h, hits give low values, screened at 18.75 µg/mL (by protocol).

| Compound | survival |
| --- | --- |
| Cc1ccc(C)n1-c1nnc(N2CCCC(C(=O)NCc3cccc(Br)c3)C2)s1 (centres undefined) | inactive: 98% |
| COCCCn1c(=O)c2sccc2n2c(CCCC(=O)Nc3cccc(C(F)(F)F)c3)nnc12 | inactive: 69% |
| Nc1cc(N)nc(SCC(=O)c2ccccc2)n1 | inactive: 81% |
| CCOC(=O)c1cccc(NC(=O)c2ccc3nc(CCc4ccccc4)oc3c2)c1 | inactive: 83% |
| O=C(c1ccc2c(c1)N(Cc1ccc(Cl)cc1)C(=O)c1ccccc1S2=O)N1CCC(Cc2ccccc2)CC1 (centres undefined) | inactive: 74% |
| O=C(NCCCc1nc2ccccc2n1Cc1cccc(Cl)c1)C1CCCCC1 | inactive: 56% |
| COc1ccccc1N1CCN(Cc2nnc(-c3ccccc3C)o2)CC1 | inactive: 78% |
| Cc1ccccc1OCC(=O)Nc1ccc2nc(SCC(N)=O)sc2c1 | inactive: 61% |
| COC(=O)c1cn(CC(=O)NC2CCCCCC2)c2ccccc12 | inactive: 106% |
| CCCCOC(=O)c1ccc(NC(=O)c2csnn2)cc1 | inactive: 77% |
| CC1=C(C(=O)Nc2ccccc2)C(c2ccc[nH]2)n2ncnc2N1 (centres undefined) | active: 20% |
| O=C1OCc2ccc(NC(=O)C3CCCCC3)cc21 | inactive: 83% |
| CCn1cc(C(=O)NCCc2ccc(C)cc2)c(=O)c2cc(S(=O)(=O)N3CCC(C)CC3)ccc21 | inactive: 57% |
| CCCOc1ccc(OC(=O)c2cn(-c3ccc(OC)cc3)c(=O)c3ccccc23)cc1 | inactive: 80% |
| COc1ccc(S(=O)(=O)N(Cc2cc3cc4c(cc3[nH]c2=O)OCCO4)C2CCCC2)cc1 | inactive: 95% |
| COC(=O)c1ccc(NC(=O)C(=O)NCC(c2cccnc2)N2CCc3ccccc32)cc1 (centres undefined) | active: 34% |
| Cc1c(Cl)cccc1NC(=O)Cn1nnc(-c2nc(-c3ccccc3)no2)c1N | inactive: 79% |
| CCCOc1ccc(C(=O)Nc2ccc3oc(-c4ccc(N(C)C)cc4)nc3c2)cc1 | inactive: 64% |
| Cc1cccc(C)c1NC(=O)CSc1nc2ccccc2c2nc(CCc3c(C)n[nH]c3C)nn12 | inactive: 94% |
| COC(=O)c1c(-c2ccc(Cl)cc2)noc1N1CCN(c2ccc(F)cc2)CC1 | inactive: 83% |
| COc1ccc(NC(=O)c2csnn2)cc1 | inactive: 107% |
| Cc1ccc(NC(=O)Cn2c(=O)n(Cc3ccc(C(=O)NCc4ccc5c(c4)OCO5)cc3)c(=O)c3ccccc32)cc1 | inactive: 102% |
| CC(C)c1cc(C(=O)NCc2ccccc2)no1 | inactive: 54% |

| Compound | survival |
| --- | --- |
| CCOc1ccc(CNC(=O)CCS(=O)(=O)c2ccc3c(c2)oc(=O)n3C)cc1 | inactive: 83% |
| CCOc1ccccc1NC(=O)C1=C(C)Nc2ncnn2C1c1cccs1 (centres undefined) | active: 37% |
| Cc1cccc(N2CCN(C(=O)c3ccc4c(Cl)c5c(nc4c3)CCCC5)CC2)c1C | inactive: 93% |
| COc1cccc(-c2nn3c(=O)cc(CN4CCN(C(=O)/C=C/c5ccccc5)CC4)nc3s2)c1 | inactive: 85% |
| COc1ccc(NC(=O)Cn2nc(C(F)(F)F)c3c2CCCC3)cc1OC | inactive: 74% |
| COc1cc(NC(=O)c2nc3ccccc3n(C)c2=O)cc(OC)c1OC | inactive: 92% |
| Cc1ccc(CCNC(=O)CCS(=O)(=O)c2cc3c(cc2Cl)NC(=O)CO3)cc1 | inactive: 92% |
| CC(C)NC(=O)CN1C(=O)c2cccnc2Sc2ccccc21 | inactive: 71% |
| CC(=O)c1cccc(NC(=O)c2cc(C)nc3c2c(C)nn3-c2cccc(Cl)c2C)c1 | inactive: 89% |
| O=C(OCc1cc(=O)n2nc(C3CC3)sc2n1)c1ccccc1Cl | inactive: 91% |
| COc1ccc(CNC(=O)C2=CC(c3cccc(OC)c3)=NS(=O)(=O)N2C)cc1 | inactive: 74% |
| CCN(c1ccccc1C)S(=O)(=O)c1nnc(NC(=O)c2ccco2)s1 | active: 41% |
| COc1ccc(Nc2nnc(-c3ccc(C)c(S(=O)(=O)NCCO)c3)c3ccccc23)cc1C(N)=O | inactive: 57% |
| Cc1ccc(-n2ncc(C(=O)NC3CCCCC3)c2C2CCN(C(=O)OC(C)(C)C)CC2)cc1 | inactive: 116% |
| COc1ccccc1OCC(=O)N1CCC(c2nc3ccccc3o2)CC1 | active: 0% |
| CCCS(=O)(=O)c1ncc(Cl)c(C(=O)Nc2c(C(=O)Nc3ccccc3)oc3ccccc23)n1 | inactive: 59% |
| CNC(=O)c1c(NC(=O)c2nc(SCc3ccc(C)cc3)ncc2Cl)sc2c1CCCC2 | active: 37% |
| O=C(CNC1CC1)NCc1cccs1 | inactive: 87% |
| COc1cccc(CNC(=O)C2CCN(C(=O)c3cnn(-c4ccccc4)c3-n3cccc3)CC2)c1 | inactive: 76% |
| Cc1ccc(NC(=O)Nc2cn(CC(C)C)c(=O)c3ccccc23)cc1N(C)C | inactive: 78% |
| Cc1cccn2c(=O)cc(CSc3nnc(NC(=O)COc4ccccc4)s3)nc12 | inactive: 84% |
| COC(=O)c1cc2sccc2n1CC(=O)Nc1ccc(OC)c(OC)c1 | inactive: 86% |
| Cc1c(Cl)cccc1NC(c1ccc(F)cc1)c1nnc(-c2ccccc2)o1 (centres undefined) | inactive: 87% |

| Compound | survival |
| --- | --- |
| COc1ccc(C2=C(N3CCN(c4cc(C)ccc4C)CC3)c3ccccc3C2=O)cc1 | active: 28% |
| CCc1ccc(-n2c(=O)c3sc4ccccc4c3n(CC(=O)NCc3ccccc3)c2=O)cc1 | inactive: 85% |
| O=C(c1ccc2c(c1)N(Cc1cccc(F)c1)C(=O)c1ccccc1S2)N1CCC2(CC1)OCCO2 | inactive: 78% |
| O=C(Cn1cccc1C(=O)c1ccccc1)NCc1ccccc1Cl | inactive: 89% |
| O=C(Nc1cccnc1)c1cc(-c2ccc(Cl)cc2)on1 | inactive: 61% |
| CCc1c(C)nc2cc(-c3cc(OC)cc(OC)c3)nn2c1NCCCN1CCOCC1 | inactive: 95% |
| COc1ccc(CNc2nc3c(-c4cccc(F)c4)nnn3c3ccccc23)cc1 | inactive: 88% |
| Cc1ccc(NC(=O)c2c(C)oc3c2C2=NCCN2C=N3)cc1F | inactive: 67% |
| COc1ccc(-c2c(C)nn3c(C(F)(F)F)cc(-c4ccccc4)nc23)cc1OC | inactive: 57% |
| COc1ccc(N(C)C(=O)c2cc3c(s2)-c2c(C)cccc2OC3)c(OC)c1 | active: -1% |
| CN(CC(=O)NCc1ccc(F)cc1)S(=O)(=O)c1ccc2[nH]c3c(c2c1)CCCC3 | inactive: 117% |
| CSc1nnc(C2CCCN(CC(=O)N3CCCC3)C2)n1C (centres undefined) | inactive: 85% |
| O=C1c2ccccc2-c2nc3ncnn3c(-c3ccc4c(c3)OCO4)c21 | active: 49% |
| COc1cc(Cl)c(C)cc1NC(=O)CCc1nc2cccnc2n1Cc1cccs1 | inactive: 83% |
| CCN(CC)CCCNC(=O)c1ccc(Cn2c(=O)[nH]c3cc(OC)c(OC)cc3c2=O)cc1 | inactive: 77% |
| CCOC(=O)c1c(S(=O)(=O)N2CCC(C(=O)N3CCN(c4ccccc4F)CC3)CC2)c(C)n(C)c1C | inactive: 99% |
| Cn1cc(C(=O)NCc2ccccc2Cl)c(=O)c2cc(S(=O)(=O)N3CCCCCC3)ccc21 | inactive: 67% |
| Cc1ccc(-n2c(=O)c3c4c(sc3n(CC(=O)Nc3cccc(Cl)c3)c2=O)CCCCC4)cc1C | active: 105% |
| Fc1ccc(C(NCCc2ccccc2)c2nnc(-c3ccccc3Cl)o2)cc1 (centres undefined) | inactive: 104% |
| O=C(CNCC1CCCCC1)Nc1ccccc1N1CCCCC1 | inactive: 84% |
| COc1ccc2nc(SCC(=O)O)[nH]c2c1 | inactive: 104% |
| Cc1cccc(C)c1OCC(=O)NC(Cc1c[nH]c2ccccc12)C(=O)O (centres undefined) | inactive: 143% |
| Cc1ccc(S(=O)(=O)NCc2nc3nc(C)cc(C)n3n2)cc1 | inactive: 127% |

| Compound | survival |
| --- | --- |
| Cc1ccc(C)c(CN2CCCN(CC(=O)Nc3ccc(C)c(C)c3)S2(=O)=O)c1 | inactive: 94% |
| N#Cc1ccc(NC(=O)CCC(=O)O)cc1 | inactive: 90% |
| Cc1ccccc1OCCCCn1c(CCNC(=O)C(C)(C)C)nc2ccccc21 | active: 36% |
| O=C(CSc1ccccc1)NCc1ccc2c(c1)CCN2C(=O)c1ccccc1 | inactive: 64% |
| CCn1cc(S(=O)(=O)c2cccc(Cl)c2)c(=O)c2cc(F)c(N3CCN(C)CC3)cc21 | inactive: 84% |
| CN(Cc1ccccc1)C(=O)CCS(=O)(=O)c1ccc2c(c1)oc(=O)n2C | inactive: 101% |
| COC(=O)c1ccccc1NC(=O)c1ccc(-c2nc(CSc3ccc(C)cc3)c(C)o2)cc1 | inactive: 72% |
| COc1ccc(CCNC(=O)c2cn(C)c3ccc(S(=O)(=O)N4CCOCC4)cc3c2=O)cc1OC | inactive: 86% |
| CC(C)N(Cc1ccccc1)C(=O)Cn1ncc2c3ccccc3n(Cc3ccccc3)c2c1=O | inactive: 86% |
| CCOC(=O)c1ccc(NC(=O)CCCn2c(=O)c3cccn3c3cccnc32)cc1 | inactive: 86% |
| Cc1cccc(Cn2c(SCc3ccc(C(=O)NC4CCCC4)cc3)nc3cccnc32)c1 | inactive: 144% |
| Cc1nn(-c2ccc(Cl)cc2)c2nc(-c3cccnc3)cc(C(F)(F)F)c12 | active: 39% |
| COc1ccc(Br)cc1CNC(=O)CN1C(=O)CCCc2ccccc21 | inactive: 80% |
| CC(C)(C)c1ccc(C(=O)Nc2nc3nc(-c4ccccc4)cc(=O)n3[nH]2)cc1 | inactive: 94% |
| C#CC(C)(CC)NC(=O)Cn1nnc(-c2ccc(OCc3ccccc3Cl)cc2)n1 (centres undefined) | inactive: 68% |
| COc1cccc(NC(c2nnc(-c3ccccc3)o2)c2ccc(F)cc2Cl)c1 (centres undefined) | inactive: 54% |
| CC(C)CC(=O)N1CCN(S(=O)(=O)c2ccccc2)CC1 | inactive: 86% |
| Cc1ccc(OC(=O)CCC(=O)N2CCN(C(=O)CCC(=O)Oc3ccc(C)cc3)CC2)cc1 | inactive: 108% |
| COc1ccc(C(C(=O)Nc2ccc(C(C)C)cc2)N(C)C(=O)Cc2cccs2)cc1 (centres undefined) | inactive: 127% |
| Cc1ccccc1Nc1nnc(-c2ccc(C)c(S(=O)(=O)N3CCN(C)CC3)c2)c2ccccc12 | inactive: 78% |
